Source: the supplement of paper PMC9588766
Counter-ions that a name gives are not always drawn. Over roughly 1,900 compounds, “cell viability of compound + 1 nM pemigatinib relative to pemigatinib-only (DMSO) wells” has its median near 0.95; the lowest 2% begin near 0.22. The list shows a part of the results.

These compounds were tested on PDC-DUC18828 (assay: cell viability of compound + 1 nM pemigatinib relative to pemigatinib-only (DMSO) wells (fraction); PDC-DUC18828 is a patient-derived cholangiocarcinoma cell line; higher = less growth inhibition). Conditions: first compound 1 µM; pemigatinib concentration 1 nM; 72 h.
Protocol: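 Selleck Bioactive library screen in the patient-derived FGFR2 fusion-positive ICC cell line PDC-DUC18828 (500 cells/well). Each compound was tested at 1 uM with 1 nM pemigatinib, in triplicate, for 72 h. Viability was read by CellTiter-Glo and normalised to plate DMSO controls. Value is the paper's averaged normalised viability.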
In the case of `O=C(O)c1cc(=O)[nH]c(=O)[nH]1` [Orotic acid (6-Carboxyuracil)] + CCN1C(=O)N(c2c(F)c(OC)cc(OC)c2F)Cc2cnc3[nH]c(CN4CCOCC4)cc3c21 [pemigatinib], the cell viability is reported as 0.967. In the case of `CC1(C)S[C@@H]2[C@H](NC(=O)[C@H](N)c3ccccc3)C(=O)N2[C@H]1C(=O)O` [Ampicillin Trihydrate] + CCN1C(=O)N(c2c(F)c(OC)cc(OC)c2F)Cc2cnc3[nH]c(CN4CCOCC4)cc3c21 [pemigatinib], the cell viability is reported as 1.01. With `CC1(C)S[C@@H]2[C@H](NC(=O)[C@H](N)c3ccccc3)C(=O)N2[C@H]1C(=O)O` [Ampicillin sodium] + CCN1C(=O)N(c2c(F)c(OC)cc(OC)c2F)Cc2cnc3[nH]c(CN4CCOCC4)cc3c21 [pemigatinib] the cell viability was 0.924. With `C[C@]12CCC(=O)C=C1[C@@H]1C[C@@H]1[C@H]1[C@@H]3[C@@H]4C[C@@H]4[C@@]4(CCC(=O)O4)[C@@]3(C)CC[C@@H]12` [Drospirenone] + CCN1C(=O)N(c2c(F)c(OC)cc(OC)c2F)Cc2cnc3[nH]c(CN4CCOCC4)cc3c21 [pemigatinib] the cell viability was 0.899. Compound `COc1ccc2cc([C@H](C)C(=O)O)ccc2c1` [Naproxen] + CCN1C(=O)N(c2c(F)c(OC)cc(OC)c2F)Cc2cnc3[nH]c(CN4CCOCC4)cc3c21 [pemigatinib] has a cell viability of 1.03. In the case of `N#Cc1cc(CN2CCC(Nc3ncnc4sc(Cl)cc34)CC2)ccc1F` + CCN1C(=O)N(c2c(F)c(OC)cc(OC)c2F)Cc2cnc3[nH]c(CN4CCOCC4)cc3c21 [pemigatinib], the cell viability is reported as 0.943. For `Cc1ncc([N+](=O)[O-])n1CC(C)O` (stereo not drawn) [Secnidazole] + CCN1C(=O)N(c2c(F)c(OC)cc(OC)c2F)Cc2cnc3[nH]c(CN4CCOCC4)cc3c21 [pemigatinib], the cell viability was 0.975. Work on `OCCn1cc(-c2cnc3nnn(Cc4ccc5ncccc5c4)c3n2)cn1` + CCN1C(=O)N(c2c(F)c(OC)cc(OC)c2F)Cc2cnc3[nH]c(CN4CCOCC4)cc3c21 [pemigatinib] yielded a cell viability of 1.02. With `CN1CCC(Nc2nc(Nc3ccc(Oc4ccccc4)cc3)c3c(=O)[nH]cc(Br)c3n2)CC1` + CCN1C(=O)N(c2c(F)c(OC)cc(OC)c2F)Cc2cnc3[nH]c(CN4CCOCC4)cc3c21 [pemigatinib] the cell viability was 0.783. For `NC(=O)c1cccc(-c2cccc(OC(=O)NC3CCCCC3)c2)c1` + CCN1C(=O)N(c2c(F)c(OC)cc(OC)c2F)Cc2cnc3[nH]c(CN4CCOCC4)cc3c21 [pemigatinib], the cell viability was 0.993. `CC(=O)O[C@H]1C(=O)[C@@]2(C)[C@H]([C@H](OC(=O)c3ccccc3)[C@]3(O)C[C@H](OC(=O)[C@H](O)[C@@H](NC(=O)c4ccccc4)c4ccccc4)C(C)=C1C3(C)C)[C@]1(OC(C)=O)CO[C@@H]1C[C@@H]2O` [Paclitaxel] + CCN1C(=O)N(c2c(F)c(OC)cc(OC)c2F)Cc2cnc3[nH]c(CN4CCOCC4)cc3c21 [pemigatinib] gave a cell viability of 0.221. In the case of `CCCN(CCC)CCc1cccc2c1CC(=O)N2` [Ropinirole HCl] + CCN1C(=O)N(c2c(F)c(OC)cc(OC)c2F)Cc2cnc3[nH]c(CN4CCOCC4)cc3c21 [pemigatinib], the cell viability is reported as 0.853. `CCCCCCCCCCCCCCCCn1cc[n+](Cc2ccccc2)c1C` + CCN1C(=O)N(c2c(F)c(OC)cc(OC)c2F)Cc2cnc3[nH]c(CN4CCOCC4)cc3c21 [pemigatinib] was tested, and the cell viability was 0.439. Work on `CSc1nc2cc(Cl)c(Oc3cccc(Cl)c3Cl)cc2[nH]1` [Triclabendazole] + CCN1C(=O)N(c2c(F)c(OC)cc(OC)c2F)Cc2cnc3[nH]c(CN4CCOCC4)cc3c21 [pemigatinib] yielded a cell viability of 0.945. `Nc1ccc(-c2ccc3ncc4ccc(=O)n(-c5cccc(C(F)(F)F)c5)c4c3c2)cn1` [Torin 2] + CCN1C(=O)N(c2c(F)c(OC)cc(OC)c2F)Cc2cnc3[nH]c(CN4CCOCC4)cc3c21 [pemigatinib] was tested, and the cell viability was 0.203. For `Cc1cnc(-c2ccccc2C(C)C)nc1NCc1ccc(-n2ccnn2)cc1` + CCN1C(=O)N(c2c(F)c(OC)cc(OC)c2F)Cc2cnc3[nH]c(CN4CCOCC4)cc3c21 [pemigatinib], the cell viability was 0.914. Work on `CC(C)C[C@H](NC(=O)[C@H](Cc1ccccc1)C[C@@H](O)[C@H](Cc1ccccc1)NC(=O)OC(C)(C)C)C(=O)N[C@@H](Cc1ccccc1)C(N)=O` + CCN1C(=O)N(c2c(F)c(OC)cc(OC)c2F)Cc2cnc3[nH]c(CN4CCOCC4)cc3c21 [pemigatinib] yielded a cell viability of 0.915. Compound `Nc1nc(N)c(N=O)c(OCC2CCCCC2)n1` + CCN1C(=O)N(c2c(F)c(OC)cc(OC)c2F)Cc2cnc3[nH]c(CN4CCOCC4)cc3c21 [pemigatinib] has a cell viability of 0.969. Work on `COc1cc2nc(N3CCCC3)nc(NCCCCCN3CCCC3)c2cc1OC` + CCN1C(=O)N(c2c(F)c(OC)cc(OC)c2F)Cc2cnc3[nH]c(CN4CCOCC4)cc3c21 [pemigatinib] yielded a cell viability of 0.995. With `NC(=O)c1cnccn1` [Pyrazinamide] + CCN1C(=O)N(c2c(F)c(OC)cc(OC)c2F)Cc2cnc3[nH]c(CN4CCOCC4)cc3c21 [pemigatinib] the cell viability was 0.982. Compound `Cn1cnc2c(F)c(Nc3ccc(Br)cc3F)c(C(=O)NOCCO)cc21` + CCN1C(=O)N(c2c(F)c(OC)cc(OC)c2F)Cc2cnc3[nH]c(CN4CCOCC4)cc3c21 [pemigatinib] has a cell viability of 0.8. Work on `C#Cc1cccc(Nc2ncnc3cc(OCCOC)c(OCCO)cc23)c1` + CCN1C(=O)N(c2c(F)c(OC)cc(OC)c2F)Cc2cnc3[nH]c(CN4CCOCC4)cc3c21 [pemigatinib] yielded a cell viability of 0.902. `CC(C)OC(=O)C(C)(C)Oc1ccc(C(=O)c2ccc(Cl)cc2)cc1` [Fenofibrate] + CCN1C(=O)N(c2c(F)c(OC)cc(OC)c2F)Cc2cnc3[nH]c(CN4CCOCC4)cc3c21 [pemigatinib] was tested, and the cell viability was 0.991. Compound `OCCOc1ccc(/C(=C(/CCCl)c2ccccc2)c2ccccc2)cc1` [Ospemifene] + CCN1C(=O)N(c2c(F)c(OC)cc(OC)c2F)Cc2cnc3[nH]c(CN4CCOCC4)cc3c21 [pemigatinib] has a cell viability of 0.972. `Cc1ccc(NC(=O)C2(c3ccc4c(c3)OC(F)(F)O4)CC2)nc1-c1cccc(C(=O)O)c1` [VX-809 (Lumacaftor)] + CCN1C(=O)N(c2c(F)c(OC)cc(OC)c2F)Cc2cnc3[nH]c(CN4CCOCC4)cc3c21 [pemigatinib] gave a cell viability of 1.07. In the case of `CNC(=O)c1ccc(Nc2ncc(C(F)(F)F)c(NCc3nccnc3N(C)S(C)(=O)=O)n2)cc1` + CCN1C(=O)N(c2c(F)c(OC)cc(OC)c2F)Cc2cnc3[nH]c(CN4CCOCC4)cc3c21 [pemigatinib], the cell viability is reported as 0.894. `Cn1cc(/C=C2\C(=O)Nc3cccnc32)c2ccccc21` + CCN1C(=O)N(c2c(F)c(OC)cc(OC)c2F)Cc2cnc3[nH]c(CN4CCOCC4)cc3c21 [pemigatinib] showed a cell viability of 0.941. `CN1C(=O)C(Cc2c[nH]c3ccccc23)NC1=S` (stereo not drawn) [Necrostatin-1] + CCN1C(=O)N(c2c(F)c(OC)cc(OC)c2F)Cc2cnc3[nH]c(CN4CCOCC4)cc3c21 [pemigatinib] was tested, and the cell viability was 1.02. For `CCC[C@H](N[C@H]1CCc2cc(F)cc(F)c2C1)C(=O)Nc1cn(C(C)(C)CNCC(C)(C)C)cn1` + CCN1C(=O)N(c2c(F)c(OC)cc(OC)c2F)Cc2cnc3[nH]c(CN4CCOCC4)cc3c21 [pemigatinib], the cell viability was 0.931. `Cc1cc2c(s1)Nc1ccccc1N=C2N1CCN(C)CC1` [Olanzapine] + CCN1C(=O)N(c2c(F)c(OC)cc(OC)c2F)Cc2cnc3[nH]c(CN4CCOCC4)cc3c21 [pemigatinib] showed a cell viability of 0.957. Compound `CCn1c(-c2nonc2N)nc2c(C#CC(C)(C)O)ncc(OC[C@H]3CCCNC3)c21` + CCN1C(=O)N(c2c(F)c(OC)cc(OC)c2F)Cc2cnc3[nH]c(CN4CCOCC4)cc3c21 [pemigatinib] has a cell viability of 0.872. With `O=S(=O)(O)Oc1ccc(C(c2ccc(OS(=O)(=O)O)cc2)c2ccccn2)cc1` [Sodium Picosulfate] + CCN1C(=O)N(c2c(F)c(OC)cc(OC)c2F)Cc2cnc3[nH]c(CN4CCOCC4)cc3c21 [pemigatinib] the cell viability was 0.923. With `CCCNC(=O)Nc1ccc(Oc2ncnc3cc(OC)c(OC)cc23)cc1Cl` + CCN1C(=O)N(c2c(F)c(OC)cc(OC)c2F)Cc2cnc3[nH]c(CN4CCOCC4)cc3c21 [pemigatinib] the cell viability was 1.01. In the case of `NC(=O)c1ccc(-c2nc(-c3ccccn3)c(-c3ccc4c(c3)OCO4)[nH]2)cc1` + CCN1C(=O)N(c2c(F)c(OC)cc(OC)c2F)Cc2cnc3[nH]c(CN4CCOCC4)cc3c21 [pemigatinib], the cell viability is reported as 0.974. For `Cc1cn(-c2cc(NC(=O)c3ccc(C)c(Nc4nccc(-c5cccnc5)n4)c3)cc(C(F)(F)F)c2)cn1` [Nilotinib (AMN-107)] + CCN1C(=O)N(c2c(F)c(OC)cc(OC)c2F)Cc2cnc3[nH]c(CN4CCOCC4)cc3c21 [pemigatinib], the cell viability was 1.06. In the case of `C[C@@H](O[C@H]1OCCN(Cc2n[nH]c(=O)[nH]2)[C@H]1c1ccc(F)cc1)c1cc(C(F)(F)F)cc(C(F)(F)F)c1` [Aprepitant] + CCN1C(=O)N(c2c(F)c(OC)cc(OC)c2F)Cc2cnc3[nH]c(CN4CCOCC4)cc3c21 [pemigatinib], the cell viability is reported as 0.954. Compound `CNC(=O)c1cc(Oc2ccc3nc(N[C@@H]4CCCC[C@H]4O)sc3c2)ccn1` + CCN1C(=O)N(c2c(F)c(OC)cc(OC)c2F)Cc2cnc3[nH]c(CN4CCOCC4)cc3c21 [pemigatinib] has a cell viability of 0.95. `CC(C)(C)c1ccc(S(=O)(=O)/C=C/C#N)cc1` + CCN1C(=O)N(c2c(F)c(OC)cc(OC)c2F)Cc2cnc3[nH]c(CN4CCOCC4)cc3c21 [pemigatinib] showed a cell viability of 0.625.
